Where “and” joins values, the source holds several entries; their conditions need not be identical. Equal entries are not always repeated. Hit rate of the full screen: of about 200,000 compounds, about 4,500 (2.2%) were called active. Inconclusive means that the source gave no clear call. Such entries were picked first, then a sample of the others. Calls come from the whole dose curve; as a rule, active = well fitted inhibition curve with a large enough effect; inconclusive = small, poorly fitted or top-dose-only effect, or effect the other way; inactive = flat fitted curve, though single readings scatter. Potencies beside an inconclusive call are fits to weak or partial responses and may not hold up.
biological target: Cruzipain (Trypanosoma cruzi) (UniProt P25779); test: qHTS Assay for Promiscuous and Specific Inhibitors of Cruzain (without detergent); settings: purified cruzain, Z-FR-AMC fluorescence, no detergent; note: nearly all actives have a fitted effect of over 40% in size;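 for max response, negative = inhibition: plate controls were enzyme without inhibitor for no effect and buffer without enzyme for full effect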
Method in brief: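 Purified cruzain at 1.5 nM, pre-incubated 15 min with compound at room temperature in 100 mM sodium acetate pH 5.5, 5 mM DTT, 0.00005% Triton X-100. Reaction started with 2 uM Z-FR-AMC; AMC fluorescence increase over 60 s gives rate.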
Potency is the fitted concentration of half-maximal effect; tags give direction and shape of the fitted curve.

UniProt P25779, sequence (P25779 whole entry, looked up): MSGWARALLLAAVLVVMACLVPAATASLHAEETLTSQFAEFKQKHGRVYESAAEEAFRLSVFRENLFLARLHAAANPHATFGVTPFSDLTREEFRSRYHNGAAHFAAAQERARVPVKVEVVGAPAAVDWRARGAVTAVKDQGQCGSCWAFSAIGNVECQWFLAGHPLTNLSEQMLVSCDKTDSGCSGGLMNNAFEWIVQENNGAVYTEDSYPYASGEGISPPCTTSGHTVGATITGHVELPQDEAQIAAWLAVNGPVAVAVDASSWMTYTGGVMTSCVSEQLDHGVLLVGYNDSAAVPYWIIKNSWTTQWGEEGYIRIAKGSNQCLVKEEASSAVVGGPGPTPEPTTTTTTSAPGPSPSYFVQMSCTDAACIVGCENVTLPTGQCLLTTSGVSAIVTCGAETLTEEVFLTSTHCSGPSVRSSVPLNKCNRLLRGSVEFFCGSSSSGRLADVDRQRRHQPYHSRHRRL

| SMILES | Potency | max response, negative = inhibition |
| --- | --- | --- |
| Cc1c(N2C(=O)/C(=C/c3ccccc3)SC2=S)c(=O)n(-c2ccccc2)n1C | inconclusive: 12.6 µM [activator, partial curve] |  |
| CCOc1ccc(CCNC(=O)c2ccc(CS(=O)(=O)c3ccccc3C)o2)cc1OCC |  | inactive: 15.5% |
| CSCCC(NS(=O)(=O)c1cccs1)C(=O)Nc1ccc(C)c(Cl)c1 (centres undefined) |  | inactive: 6.65% |
| CCOC(=O)c1cnc2ccc(C(=O)OC)cc2c1Nc1ccc(N2CCOCC2)cc1 | inconclusive: 39.8 µM [activator, single point] |  |
| COc1ccc(OC)c(Nc2ncc3c(n2)CCN(Cc2cc(OC)c(OC)c(OC)c2)C3)c1 |  | inactive: -1.91% |
| Cc1cc(C)c2c(=O)cc(CSc3nnc(-c4ccccc4)n3C)[nH]c2c1 |  | inactive: 0.418% |
| CC(C)C(=O)N1c2nc(C(C)C)nn2C2(CCCCC2)[C@@H]2CCCC[C@@H]21 |  | inactive: -29.2% |
| CC1(C(=O)NCCCNc2ncc(C(F)(F)F)cc2Cl)C=CCN1C(=O)c1ccccc1 (centres undefined) | inconclusive: 39.8 µM [activator, single point] |  |
| Cc1sc2nc(CN3CCOCC3)nc(NS(=O)(=O)c3ccc4c(c3)OCCO4)c2c1C | inconclusive: 39.8 µM [activator, single point] |  |
| O=C(C[C@@H](C(=O)O)N1CCOCC1)c1ccccc1 |  | inactive: 1.06% |
| C=C(Cl)CSC(=S)N(CC)CC |  | inactive: -4.07% |
| NC1=CC(=O)c2cccc3cccc1c23 | inconclusive: 39.8 µM [inhibitor, single point] |  |
| Cc1cccc(OCc2nnc(SCc3nc4cc(C(F)(F)F)ccc4c(=O)[nH]3)o2)c1 | inconclusive: 20 µM [activator, partial curve] |  |
| COc1ccccc1CNC(=O)c1ccc2c(c1)CCN2S(=O)(=O)c1ccc(Cl)cc1 | inconclusive: 31.6 µM [inhibitor, single point] |  |
| Cc1ccc(S(=O)(=O)N2CCC(=O)N(CCOC(=O)Nc3cccc(Cl)c3)CC2)cc1 | inconclusive: 39.8 µM [activator, single point] |  |
| O=C(Nc1ccccc1N1CCOCC1)c1cc(-c2ccco2)nc2ccccc12 | inconclusive: 39.8 µM [activator, single point] |  |
| O=C1c2ccccc2C(=Nc2ccccc2)C1c1cccc(Br)c1 (centres undefined) | inconclusive: 31.6 µM [inhibitor, single point] |  |
| CCCOc1ccc(C2=NC(c3ccc(F)cc3)=Nc3ccc(OC)cc3N2)cc1 | active: 10 µM |  |
| CN(C)c1ncc2nc(-c3cccs3)c(=O)n(C)c2n1 |  | inactive: 3.45% |
| COc1ccc(/C=N/NC(=O)c2ccc(CSc3nc(C)cc(C)n3)cc2)c(OC)c1OC | inconclusive: 39.8 µM [activator, single point] |  |
| Cc1ccc2c(c1)c(=O)c(S(=O)(=O)c1ccc(C)c(C)c1)cn2CC(=O)Nc1ccccc1 | inconclusive: 31.6 µM [inhibitor, single point] |  |
| Cc1c(-c2ccccc2)n(-c2ccccc2O)c2nc3c(c(=O)n(C)c(=O)n3C)n12 |  | inactive: -11.6% |

| SMILES | Potency | max response, negative = inhibition |
| --- | --- | --- |
| CCn1c(C(=O)N2CCCC(C(=O)NCCCc3ccccc3)C2)cc2sccc21 (centres undefined) | inconclusive: 31.6 µM [activator, single point] |  |
| Cc1ccc(C(=O)Nc2ccc(C(=O)OCc3cc(=O)n4c5c(sc4n3)CCCC5)cc2)cc1 |  | inactive: -7.05% |
| CCCCCCC(C)(C)c1ccc([C@@H]2C[C@H](O)CC[C@H]2CCCO)c(O)c1 | inconclusive: 25.1 µM [activator, partial curve] |  |
| CCCOc1ccc(Cc2nn3c(=O)/c(=C/c4ccco4)sc3nc2=O)cc1 | active: 10 µM |  |
| CCc1cc(C(N)=O)c(NC(=O)c2ccc(OC)cc2)s1 |  | inactive: -3.04% |
| COC(=O)[C@@]1(Cc2ccc(F)cc2)[C@H]2c3cc(C(=O)N(C)C)n(Cc4ccccn4)c3C[C@H]2CN1C(=O)c1ccccc1 | inconclusive: 7.94 µM [activator, full curve] and inconclusive: 5.01 µM [activator, full curve] |  |
| COCc1cc(C)nc(OCC(=O)N/N=C/c2cc(C)n(-c3c(C)cccc3C)c2C)c1C#N |  | inactive: 10.2% |
| COc1ccccc1C1CN(c2ccccc2)N=C1c1cccs1 (centres undefined) | inconclusive: 31.6 µM [inhibitor, single point] |  |
| CCOc1ccccc1NC(=O)c1cnc(N2CCOCC2)c2ccccc12 | inconclusive: 39.8 µM [activator, single point] |  |
| O=C(CSc1ncc2c(n1)-c1cc(Cl)ccc1N(Cc1ccccc1F)S2(=O)=O)Nc1cccc(C(F)(F)F)c1 | active: 15.8 µM |  |
| COC(=O)c1cc(NC(=O)c2ccc3c(c2)N(Cc2cccc(Cl)c2)C(=O)c2ccccc2S3=O)cc(C(=O)OC)c1 (centres undefined) |  | inactive: -2.27% |
| Cc1cccc(NC(=O)CSc2nnc(CCCCCNC(=O)OC(C)(C)C)o2)c1C | inconclusive: 39.8 µM [activator, single point] |  |
| COc1ccc(-c2nc3cnc(N4CCN(C)CC4)nc3n(CCc3ccccc3)c2=O)cc1 |  | inactive: 7.28% |
| COc1ccc(C(CC(=O)Nc2ccc(C)cc2)NC(=O)C(F)(F)F)cc1 (centres undefined) | inconclusive: 39.8 µM [inhibitor, single point] |  |
| Cc1nc2cc(C(F)(F)F)ccc2n1C1CCN(Cc2nnnn2Cc2ccc3c(c2)OCO3)CC1 | inconclusive: 10 µM [activator, partial curve] |  |
| CCCc1cc(=O)oc2c(CN3CCOCC3)c(O)ccc12 | inconclusive: 39.8 µM [inhibitor, single point] |  |
| CC(C)N(Cc1ccccc1)C(=O)CN1C(=O)COc2ccc(S(=O)(=O)N3CCCCCC3)cc21 | inconclusive: 39.8 µM [activator, single point] |  |
| CCN(C(=O)c1cnc(N2CCOCC2)c2ccccc12)c1cc(C)ccc1C | inconclusive: 25.1 µM [activator, partial curve, poor fit] |  |
| O=C(NC(=S)Nc1nc2c(s1)CCCC2)c1ccc(C(=O)c2ccccc2)cc1 | active: 25.1 µM |  |
| Cc1sc2ncn(CC(=O)N(CC(=O)NC3CCCC3)Cc3cccs3)c(=O)c2c1C | inconclusive: 31.6 µM [activator, single point] |  |
| CCN(CC)c1ccc(/C=C(/C#N)c2nc3ccccc3[nH]2)c(OC(C)C)c1 | inconclusive: 39.8 µM [inhibitor, single point] |  |
| O=C1/C(=C/c2cccc(F)c2)CSc2sccc21 |  | inactive: -2.03% |

| SMILES | Potency | max response, negative = inhibition |
| --- | --- | --- |
| COc1ccc(CN2C(=O)CN(C3CCCCCC3)C(=O)C2c2ccc(OC)c(OC)c2)cc1 (centres undefined) | inconclusive: 31.6 µM [activator, single point] |  |
| O=C(O)c1ccc2c(c1)N(Cc1ccc(F)cc1Cl)C(=O)c1ccccc1S2 | inconclusive: 31.6 µM [activator, single point] |  |
| Cc1ccc(S(=O)(=O)NNC(=O)CCC(=O)Nc2ccc(C)c(C)c2)cc1 |  | inactive: 7.37% |
| O=C(OCc1cc(=O)n2cc(Br)ccc2n1)c1ccc(Cl)c(S(=O)(=O)NCc2ccccc2)c1 | inconclusive: 31.6 µM [inhibitor, single point] |  |
| O=c1oc(-c2ccccc2)nc2c1C1(CCCCC1)Cc1ccccc1-2 | active: 25.1 µM |  |
| Cc1ccc(C)c(N2CCN(C(=O)c3cc(S(=O)(=O)N4CCC(C)CC4)cn3C)CC2)c1 |  | inactive: -7.58% |
| COc1ccccc1C(=O)c1cn(CC(=O)Nc2ccccc2F)c2nc(C)ccc2c1=O |  | inactive: -13.6% |
| CCn1c(CC(=O)Nc2ccc(C)c(Cl)c2)nnc1SCC(=O)Nc1nc(C)cs1 | inconclusive: 31.6 µM [inhibitor, single point] |  |
| Cc1ccc(S(=O)(=O)NCCc2nnc3ccc(SCc4ccc(F)cc4)nn23)cc1 | inconclusive: 39.8 µM [activator, single point] |  |
| Cc1ccc(NC(=S)/N=C(\N)Nc2nc(C)c3ccccc3n2)cc1C | inconclusive: 39.8 µM [inhibitor, single point] |  |
| CCC(C(=O)Nc1cc(OC)ccc1OC)n1c(C)c2cnn(-c3ccccc3)c(=O)c2c1C (centres undefined) | inconclusive: 39.8 µM [activator, single point] |  |
| O=C1c2cccc3cccc(c23)C(=O)N1CCN1CCN(C(=S)Nc2ccc(Cl)cc2)CC1 | inconclusive: 25.1 µM [inhibitor, single point] |  |
| CCCCOc1ccc(S(=O)(=O)NCc2csc(-c3ccc(OC)cc3)n2)cc1 |  | inactive: 5.1% |
| Cc1cccc(N2CCN(C(=O)C3CCN(S(=O)(=O)c4c(C)noc4C)CC3)CC2)c1C | inconclusive: 39.8 µM [activator, single point] |  |
| O=C(CN1C(=O)COc2ccc(S(=O)(=O)N3CCCCCC3)cc21)N1CCN(c2cccc(C(F)(F)F)c2)CC1 | inconclusive: 7.94 µM [activator, single point] |  |
| Cc1cc2oc(=O)cc(CN3CCc4ccccc43)c2cc1Cl | inconclusive: 25.1 µM [inhibitor, single point] |  |
| Cc1cccc(C)c1OCC(=O)Nc1c(C(=O)c2ccc(Br)cc2)oc2ccccc12 |  | inactive: -0.296% |
| CCC(C)NC(=O)c1[nH]c2cc(C)ccc2c1Sc1ccc(Cl)cc1 (centres undefined) | inconclusive: 39.8 µM [inhibitor, single point] |  |
| COc1ccc(CCNC(=O)CCc2cn(Cc3ccc(C)cc3)c3ccccc23)c(OC)c1OC | inconclusive: 31.6 µM [activator, single point] |  |
| Cc1nc(NC(=O)c2ccccc2)sc1-c1csc(Nc2ccc(Cl)cc2)n1 | active: 3.98 µM |  |

From PubChem BioAssay AID1476 (National Center for Advancing Translational Sciences (NCATS), 2009)
